Measured values taken from PubChem BioAssay AID1745853 (National Center for Advancing Translational Sciences (NCATS), 2022).
Some of the results follow. Shown are side measurements of this screen, not its main read-out; they come without a call.

How the values were obtained:
Test in all cases: Primary Screen for Target Class Profiling of Small Molecule Inhibitors of Methyltransferases
[1] = biological target: Glycine N-methyltransferase (Homo sapiens) (UniProt Q14749); conditions: purified enzyme, MTase-Glo SAH luminescence; measured here: GNMT inhibition; at 40 µM; stronger effect = lower value
Method in brief: (§1)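 Each enzyme was reacted with SAM and its substrate, with compounds tested once at 40 uM; SAH formed was read by MTase-Glo luminescence.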

[2] = biological target: Guanidinoacetate N-methyltransferase (Homo sapiens) (UniProt Q14353); conditions: purified enzyme, MTase-Glo SAH luminescence; measured here: GAMT inhibition; at 40 µM; stronger effect = lower value
Method in brief: as §1

[3] = biological target: Histamine N-methyltransferase (Homo sapiens) (UniProt P50135); conditions: purified enzyme, MTase-Glo SAH luminescence; measured here: HNMT inhibition; at 40 µM; stronger effect = lower value
Method in brief: as §1

[4] = biological target: Nicotinamide N-methyltransferase (Homo sapiens) (UniProt P40261); conditions: purified enzyme, MTase-Glo SAH luminescence; measured here: NNMT inhibition; at 40 µM; stronger effect = lower value
Method in brief: as §1

[5] = biological target: Phenylethanolamine N-methyltransferase (Homo sapiens) (UniProt P11086); conditions: purified enzyme, MTase-Glo SAH luminescence; measured here: PNMT inhibition; at 40 µM; stronger effect = lower value
Method in brief: as §1
% is scaled to controls: 0 for no effect and ±100 for the full control effect.

SMILES	activity change, negative = inhibition [1] [%]	activity change, negative = inhibition [2] [%]	activity change, negative = inhibition [3] [%]	activity change, negative = inhibition [4] [%]	activity change, negative = inhibition [5] [%]
O=c1[nH]c2ccccc2n1CCN1CCN(c2cccc(C(F)(F)F)c2)CC1	1.47	10.7	7.32	-13.5	-0.818
CCOC(=O)c1cn(C2CN(S(=O)(=O)Cc3ccccc3)C2)nn1	-1.12	-4.33	1.38	-1.44	0.383
CCC(C)NC(=O)c1ccc2c(=O)n(CC(C)C)c3nn(CC(=O)Nc4ccc(C)cc4)c(=O)n3c2c1 (stereo unspecified)	2.76	0	0.341	1.85	2.74
CC1(C(=O)NC2CCCCCC2)Cn2nc(-c3ccco3)cc2C(=O)N1CCc1ccccc1 (stereo unspecified)	0.847	0	4.09	5	-0.228
O=C(CSc1nnc2n(Cc3ccccc3)c(=O)c3ccccc3n12)Nc1cccc(Cl)c1	-8.2	0	1.19	-10.2	-10
CCOC(=O)c1cc2n(n1)CC(C)(C(=O)NC1CCCCC1)N(c1cccc(F)c1)C2=O (stereo unspecified)	-0.168	4.07	-4.3	0.399	0.808
O=C(CCn1ccc2cc(S(=O)(=O)N3CCCC3)ccc21)NC1CCCC1	4.25	0	8.08	8.99	4.89
CN(C)c1ccc(C(=O)NC[C@H]2O[C@@H](CO)[C@@H](O)[C@H]2N(C)CCc2ccccc2)cc1	-5.82	-10.3	-7.15	-7.06	-6.55
CCN1CCN(CCNC(=O)c2cc3n(n2)CC(C)(C(=O)NCc2ccccc2)N(C)C3=O)CC1 (stereo unspecified)	2.26	1.74	-7.79	3.01	2.4
CCN1CCN(C2(C(=O)NCCc3ccccc3)Cc3ccccc3C2)CC1		-4.51		-21.5	-6.63
CCCn1c(=O)c2ccc(C(=O)NC(C)CC)cc2n2c(SCC(=O)Nc3cccc(F)c3)nnc12 (stereo unspecified)	-0.105	5.04	1.47	-3.62	-1.74
O=C(NCc1ccccn1)C1CCN(Cc2cc3n(n2)CCCNC3)CC1	-3.6	-12.6	-2.44	-17.7	-8.84
CC(=O)N1CCCC(c2[nH]ccc2C(=O)NCc2cc(C)nn2C)C1 (stereo unspecified)	-3.88	-2.43	-1.71	-5.21	-0.274
CC1(C(=O)NCc2ccccc2)Cn2c(ccc2-c2ccco2)C(=O)N1CCC1=CCCCC1 (stereo unspecified)	-13.1	1.62	-6.72	-11.3	-5.61
C[C@]12CCC(=O)C=C1CC[C@@H]1[C@@H]2CC[C@@]2(C)[C@H]1CC[C@]2(O)C(=O)CO	-10.2	2.76	-1.18	-6.29	4.81
COc1ccccc1CNC(=O)C1(C)Cn2nc(-c3ccccc3)cc2C(=O)N1Cc1ccc2c(c1)OCO2 (stereo unspecified)	5.82	4.56	8.06	2.95	0.138
COc1cccc(NS(=O)(=O)c2cc3[nH]c(=O)[nH]c3cc2Cl)c1	11.9	0	10.8	0.02	-3.32
COC(=O)C1=C(C)NC(C)=C(C(=O)OC(C)(C)CN(C)CCC(c2ccccc2)c2ccccc2)C1c1cccc([N+](=O)[O-])c1 (stereo unspecified)	-8.34	3.5	-2.79	-8.84	3.07
C=C1C[C@]23C[C@H]1CC[C@H]2[C@@]12CC[C@H](O)[C@@](C)(C(=O)O1)[C@H]2[C@@H]3C(=O)O	3.58	6.44	14	-5.08	6.6
CC(=O)NC1(C)CCN(Cc2ccccc2-c2ccccc2Oc2ccccc2)C1 (stereo unspecified)	-10.2	-10.5	-12.2	-28.4	-12.2

SMILES	activity change, negative = inhibition [1] [%]	activity change, negative = inhibition [2] [%]	activity change, negative = inhibition [3] [%]	activity change, negative = inhibition [4] [%]	activity change, negative = inhibition [5] [%]
CC(C)(O)C(=O)N1CCN(c2ccc(C(F)(F)F)c(C3=C(c4c[nH]c5ccccc45)C(=O)NC3=O)c2)CC1	-61.5	-49.5	-55	-61.2	-61.9
COc1ccc(CNC(=O)C2(C)Cn3cnc(C(=O)Nc4ccc(Cl)cc4F)c3C(=O)N2C2CC2)cc1 (stereo unspecified)	-14.6	4.71	-4.82	-7.06	-1.5
CCn1cnnc1CC1CCN(C(=O)c2[nH]nc3c2COc2ccccc2-3)CC1	-47.3	-5.07	-5	-14.6	-6.06
CC(=O)O[C@@H]1[C@H](O[C@@H]2O[C@H](CO)[C@@H](O)[C@H](O)[C@H]2O)[C@@H](O[C@@H]2O[C@@H](C)[C@H](O)[C@@H](O[C@@H]3O[C@H](CO)[C@@H](O)[C@H](O)[C@H]3O)[C@H]2O)[C@H](OC(=O)C23CCC4(C)C(=CCC5C6(C)CC(O)C(O[C@@H]7O[C@H](C(=O)O)[C@@H](O)[C@H](O)[C@H]7O)C(C)(C(=O)O)C6CCC54C)C2CC(C)(C)CC3O)O[C@@H]1C (stereo partly specified)	4.06	7.41	8.7	-4.39	8.49
O=C(Nc1cccnc1)c1cc(-c2ccnc(F)c2)ccc1OCc1ccccc1	-8.31	-10.7	-8.33	-27.6	-11.2
CN1CC(O)C(O)C(O)C1CO (stereo unspecified)	4.49	12.1	5.83	0.387	10.7
COc1ccc2cc3n(c2c1)CC(C)(C(=O)NC1CCCCCC1)N(c1ccccc1F)C3=O (stereo unspecified)	-1.2	0	-1.39	-8.06	-11.3
CC(C)Nc1ncc(C(=O)NC2CCCN(CCc3ccccc3)C2)cn1 (stereo unspecified)	-2.75	4.54	-1.82	-5.73	-3.8
COc1cc(NC(=O)Cn2nc3n(Cc4ccc(F)cc4)c(=O)c4ccccc4n3c2=O)cc(OC)c1	0.895	4.31	8.55	2.79	1.25
CCCn1c(=O)c2ccc(C(=O)NC(C)C)cc2n2c(=O)n(CC(=O)Nc3cccc(CC)c3)nc12	1.32	-0.764	-3.94	-0.133	-4.1
COC(=O)c1ncn2c1C(=O)N(Cc1ccccc1)C(C)(C(=O)NC1CCCCCC1)C2 (stereo unspecified)	1.51	3.6	-4.15	6.26	2.88
O=C(CC1CCCC1)N1CCC(Nc2cccnc2)C1 (stereo unspecified)	-61.5	-44.9	-4.8	-15	-38.3
Cc1ccc(NC(=O)CSc2nnc3n(CCC(C)C)c(=O)c4ccccc4n23)c(C)c1	1.63	0.366	6.86	-12.7	3.34
Cc1ccc(CN2CC(Cn3c(C)cnc3-c3ccncc3)C2)o1	-4.16	3.89	-10.4	-6.34	16
O=c1[nH]c2cc(Br)c(S(=O)(=O)N3CCN(c4ccccc4F)CC3)cc2[nH]1	6.64	0	7.76	-4.14	-2.18
COc1cccc(-c2nnnn2[C@H]2CO[C@H]3[C@@H]2OC[C@@H]3NC(=O)c2ccccc2)c1	-0.525	0.932	2.63	-2.72	-13
O=C(NCc1c[nH]c2ncccc12)c1cccnc1	-4.58	-4	-2.48	-6.75	-2.74
CC(=O)c1c(O)cc(O[C@@H]2O[C@H](CO)[C@@H](O)[C@H](O)[C@H]2O)cc1O	-0.107	-6.14	7.64	-16	3.48
Cc1cc2c(cc3n2CC(C)(C(=O)NC2CCCCCC2)N(c2ccccc2C)C3=O)o1 (stereo unspecified)	5.09	0	7.74	8.49	4.24
CC1(C(=O)NC2CCCCCCC2)Cc2ccccc2C(=O)N1C1CCCC1 (stereo unspecified)	-0.913	1.27	11.3	9.11	-0.509

SMILES	activity change, negative = inhibition [1] [%]	activity change, negative = inhibition [2] [%]	activity change, negative = inhibition [3] [%]	activity change, negative = inhibition [4] [%]	activity change, negative = inhibition [5] [%]
CCCN1C(=O)c2c(C(=O)NCc3ccc(F)cc3)ncn2CC1(C)C(=O)NCc1ccc(OC)cc1 (stereo unspecified)	-2.46	1.99	1.23	0.113	4.94
Cc1ccccc1C(=O)Nc1ccc2c(c1)C(=O)N(C)C1=NCCN12	-6.52	-2.19	4.37	-7.06	-9.17
C=C1C(=O)OC2/C=C(\CO)CC/C=C(\C=O)CC(OC(=O)CC(C)C)C12 (stereo unspecified)	-0.156	-0.517	9.08	-11.5	7.81
Nc1n[nH]c(N)c1N=Nc1ccc(O)cc1		-21.8		-2.54	1.5
CCCC1c2cccn2CCN1C(=O)Nc1ccccc1Cl (stereo unspecified)	1.94	1.96	-45	7.8	9.12
COc1cc(CCc2ccc(OCC=C(C)C)cc2)cc(OC)c1OC	3.76	7.98	9.4	-11.4	2.07
Cc1ccc2nc(NC(=O)Cn3nc4c(cc3=O)CCCCC4)sc2c1	-30.9	-8.94	-13.9	-14.9	-4.62
COc1ccc(-c2cc3n(n2)CC(C)(C(=O)NCc2ccccc2)N(Cc2cccc(OC)c2OC)C3=O)cc1 (stereo unspecified)	9.03	7.48	10.9	6.86	2.87
NC(=O)[C@@H](Cc1c[nH]c2ccccc12)NC(=O)C1=C[C@@H](NS(=O)(=O)c2cccs2)[C@@H](O)[C@H](O)C1	-7.45	-5.57	-0.487	-5.51	-8.68
C=CC(=O)Nc1cccc(Oc2nc(Nc3ccc(N4CCN(C)CC4)cc3)ncc2Cl)c1	-40.7	2.44	-27	-55.3	-7.92
Cc1nc(CN2CCCC(c3[nH]ncc3Cc3ccccc3)C2)co1 (stereo unspecified)	-1.87	-0.774	-6.49	-5.96	-3.71
Cc1noc([C@H]2CCN(C(=O)NCc3ccccc3)C[C@H]2NC(=O)C2CCOCC2)n1	-2.19	-5.57	-0.659	-3.53	-1.22
COc1cccc(-c2nc3cc(SC)ccc3cc2CN(C)Cc2ccno2)c1	-14.2	-9.41	-6.85	-25.2	-13.7
CC(C)(C)c1cc(CC2(NCc3ccc(Cl)cc3)COC2)no1	-5.83	-10.9	-4.67	-16.4	-7.25
Cc1ccc(CN2CCCCC23Cc2ccccc2CNC3=O)cc1C (stereo unspecified)	-9.86	-6.77	-10	-17.9	-10.7
Cc1ccc(Cn2c(=O)c3ccc(C(=O)NC4CCCC4)cc3n3c(=O)n(C)nc23)cc1	2.08	4.92	1.31	1.19	3.23
CCOC(=O)N1CCC(CN(Cc2ccc(Cl)cc2)Cc2ccc([N+](=O)[O-])s2)C1 (stereo unspecified)	-5.15	-18	-2.54	-35.6	-6.78
CC1CCC(n2c3cnccc3c3cnc(Nc4ccc5c(n4)CCN(C(=O)CO)C5)nc32)CC1 (stereo unspecified)	-4.99	5.16	8.18	-15.2	5.36
